From the RNAGym collection of RNA variant scans (doi:10.7554/elife.90254)
Read counts are not given, so values of variants with three or more changes are uncertain.

B1: LINE1-mini (parent)
chain: GGCAGAGCUCAACACAGCGUGGCAAAGUGGCUGUGGCUAGACUGCC

Variants of: B1
Experiment: self-cleavage, relative activity (ratio to wild type); higher = more cleavage; in vitro, sequencing; the parent is a self-cleaving ribozyme
C8U A14C U20A G22A gave a self-cleavage of 0.06.
In the case of C8U A24C A25U G29C, the self-cleavage is reported as 0.03.
For C8U C15G A25C C37A, the self-cleavage was 0.01.
Variant C8U A26G G30U has a self-cleavage of 0.16.
In the case of C8U A11C A12G U20A G27C C31G C37U A39C, the self-cleavage is reported as 0.
For C8U C13U A24C, the self-cleavage was 0.25.
With C8U A12G A24C G27C the self-cleavage was 0.03.
For C8U A11G G27C, the self-cleavage was 0.02.
Variant C8U A24U C42U G44U has a self-cleavage of 0.22.
C8U C13G C23U C45U showed a self-cleavage of 0.07.
C8U C13U G27U C37G gave a self-cleavage of 0.25.
C8U C10G C15U G17C G35U A41C G44C gave a self-cleavage of 0.01.
In the case of C8U A26U U34G, the self-cleavage is reported as 0.02.
For C8U A24G U38A, the self-cleavage was 0.28.
C8U A16C G17U C31A showed a self-cleavage of 0.04.
In the case of C8U A12G C13A G17C G33U, the self-cleavage is reported as 0.07.
Variant C8U A14C G21A G36C has a self-cleavage of 0.05.
Variant C8U C15A U32A has a self-cleavage of 0.06.
In the case of C8U C10G C18A G30A, the self-cleavage is reported as 0.01.
In the case of C8U C13U A41U, the self-cleavage is reported as 0.23.
Variant C8U A12G A25C has a self-cleavage of 0.19.
For C8U A12C A24U G44U C46U, the self-cleavage was 0.01.
Work on C8G U28C G33U yielded a self-cleavage of 0.
In the case of C8G U28G G30C G35U, the self-cleavage is reported as 0.01.
For C8U C10U A12C A16U A39G, the self-cleavage was 0.02.
C8U C13U A14C gave a self-cleavage of 0.09.
With C8U C13U A24G U34G the self-cleavage was 0.18.
Work on C8U A24U G30C C46U yielded a self-cleavage of 0.12.
In the case of C8G U28A G40A A41G C42A U43C C45G, the self-cleavage is reported as 0.05.
C8U C10U C15A U32A gave a self-cleavage of 0.01.
Variant C8U C13G G21U A26U G29A has a self-cleavage of 0.02.
C8U A14C G22C U43G gave a self-cleavage of 0.
C8U C13A C23A G33A G44U gave a self-cleavage of 0.18.
C8U A14U G22C G33U G40A showed a self-cleavage of 0.07.
For C8U C10A C13G G17C U34A, the self-cleavage was 0.01.
For C8U C15G G30C, the self-cleavage was 0.15.
With C8U A12C U28C C45A C46U the self-cleavage was 0.01.
C8U A14C G19A U28A gave a self-cleavage of 0.
Variant C8G U38A C42A has a self-cleavage of 0.08.
Variant C8U C13A C18A G29C G35A C42G C46U has a self-cleavage of 0.03.
With C8U A12C C46A the self-cleavage was 0.04.
C8U C10A A12G C37U showed a self-cleavage of 0.02.
With C8U A14G C23U C42G the self-cleavage was 0.03.
Work on C8U C10A G29C G36C yielded a self-cleavage of 0.03.
With C8U A26C U38G the self-cleavage was 0.01.
Variant C8U C13A C15U C23A has a self-cleavage of 0.17.
C8G U28A U32A C42A gave a self-cleavage of 0.02.
C8U A14C G29U C31A U38A gave a self-cleavage of 0.06.
Variant C8U C13A A16U has a self-cleavage of 1.08.
Work on C8U A11C A14C A16U yielded a self-cleavage of 0.01.
For C8U A14G U20C A41G G44C, the self-cleavage was 0.02.
With C8U C13U C45U the self-cleavage was 0.23.
C8U A14U C31U A41U C42A gave a self-cleavage of 0.
Variant C8U A11U G21U C31A has a self-cleavage of 0.
Variant C8U C13U C31G has a self-cleavage of 0.31.
Variant C8U A24G U34G has a self-cleavage of 0.13.
C8U C10A G21C C23U C45U gave a self-cleavage of 0.01.
Variant C8U A12C A25U has a self-cleavage of 0.02.
C8U C13U U20G C31U U32C showed a self-cleavage of 0.1.
C8U A25U G33U U38A gave a self-cleavage of 0.12.
With C8U A26G G36C the self-cleavage was 0.17.
With C8U A12U A25U G35U the self-cleavage was 0.02.
C8U C10U C18G A39U C42G G44C showed a self-cleavage of 0.01.
Work on C8U C15G G21U C45U yielded a self-cleavage of 0.02.
Work on C8U A12C A41C yielded a self-cleavage of 0.
In the case of C8U C13U C15U A16G G29C, the self-cleavage is reported as 1.23.
C8U A12G C23U G29C U34G G40A showed a self-cleavage of 0.01.
C8U A41G C42A gave a self-cleavage of 0.07.
C8U A14C C18U A26C U28A U34A gave a self-cleavage of 0.08.
With C8U C10A G27U A39U the self-cleavage was 0.
With C8U C10A A11U A12U C31U the self-cleavage was 0.04.
C8U A11G G22C A25U U34C U38G gave a self-cleavage of 0.01.
C8U A16G U20C gave a self-cleavage of 0.08.
C8U C13U A26U C46A gave a self-cleavage of 0.04.
With C8U A16C G27C C31A the self-cleavage was 0.02.
In the case of C8G U32A C42A, the self-cleavage is reported as 0.04.
Variant C8U A11C G27C U28C G29A G35A has a self-cleavage of 0.02.
C8U A12C C18G C46A showed a self-cleavage of 0.04.
For C8U A14U U32A U34G, the self-cleavage was 0.05.
With C8U C10U A24U G27A G36C the self-cleavage was 0.05.
Variant C8U A11C G40U G44U has a self-cleavage of 0.
In the case of C8U A16U A25G G40C C46U, the self-cleavage is reported as 0.04.
In the case of C8U A11G C18A G19U G33A U34C, the self-cleavage is reported as 0.02.
C8U A14G C31U U43C G44U gave a self-cleavage of 0.06.
For C8U C13A G30C, the self-cleavage was 0.11.
C8U C10G C45A gave a self-cleavage of 0.04.
With C8U C10G C13G A24U C37G A39U the self-cleavage was 0.01.
With C8U C15A G19U G27C C37G G40A C42A the self-cleavage was 0.01.
For C8U A39C C42G, the self-cleavage was 0.18.
Variant C8U A14U A26G G44C has a self-cleavage of 0.03.
Variant C8U A11C C23A G30A G44U has a self-cleavage of 0.
Work on C8U A11C G44U C45A yielded a self-cleavage of 0.03.
Work on C8U A16G G21U yielded a self-cleavage of 1.58.
C8U C10A C13A G17U G44A gave a self-cleavage of 0.02.
C8U C10U A11C G22A G30A showed a self-cleavage of 0.01.
In the case of C8U C10A G35C, the self-cleavage is reported as 0.03.
Work on C8G U28A G33C C46G yielded a self-cleavage of 0.03.
Work on C8U C10G C13U C18G yielded a self-cleavage of 0.02.
Variant C8U C13A G17A G29A G30A U43C has a self-cleavage of 0.14.
C8U A16U C18A G21U G40C gave a self-cleavage of 0.
C8U A12U C13A C23A U28C G40C showed a self-cleavage of 0.05.
Variant C8G U43G C45A has a self-cleavage of 0.03.
With C8U A14U G33A G35A the self-cleavage was 0.02.
Variant C8U A16G G44A has a self-cleavage of 0.1.
C8U C15G G35C C42A gave a self-cleavage of 0.11.
C8U A14G A16U gave a self-cleavage of 0.03.
For C8U C13A G22U G33A, the self-cleavage was 0.02.
C8U A12U C13G G30U C37A showed a self-cleavage of 0.04.
C8U A12G A25G C42G gave a self-cleavage of 0.04.
For C8U C10A G19A G22U G27C C45G, the self-cleavage was 0.02.
With C8U C10A G17U A24G the self-cleavage was 0.05.
C8U A12C G29U G35A gave a self-cleavage of 0.01.
C8U C13A U38A showed a self-cleavage of 0.5.
With C8U A25G C42A U43C the self-cleavage was 0.1.
C8U A11G G21U gave a self-cleavage of 0.01.
C8U A25C G29U showed a self-cleavage of 0.71.
With C8U A14U G22U C23A G27A the self-cleavage was 0.03.
Work on C8U A16C G36U yielded a self-cleavage of 0.01.
For C8U A14C G30U A39G, the self-cleavage was 0.02.
Variant C8U C10G G21A U38A G40A has a self-cleavage of 0.
C8U A12U U28A G29A gave a self-cleavage of 0.06.
Variant C8U C15G G21A C23A U32A G36A C42A has a self-cleavage of 0.44.
Work on C8U A11G G17C C18U U32A U38G yielded a self-cleavage of 0.01.
Work on C8U C13U A24C A25U G27A yielded a self-cleavage of 0.05.
For C8U C10U A11C, the self-cleavage was 0.06.
C8U A11U C13G C37A A39G gave a self-cleavage of 0.01.
In the case of C8U C10A G22U, the self-cleavage is reported as 0.04.
With C8U A16C G35C C46A the self-cleavage was 0.02.
Work on C8U A26G A39G yielded a self-cleavage of 0.02.
In the case of C8U A16C G30A C31U, the self-cleavage is reported as 0.13.
With C8U A25C G33U the self-cleavage was 0.11.
In the case of C8U A16C A26G G35U, the self-cleavage is reported as 0.14.
Variant C8U A16C C18G A24U A25C G30C has a self-cleavage of 0.01.
Variant C8U A14G G27U U43C has a self-cleavage of 0.24.
C8U C13G C18A C45G gave a self-cleavage of 0.01.
C8U C13U U43A gave a self-cleavage of 0.09.
For C8U A25C G27A, the self-cleavage was 0.1.
Work on C8U A24C A39C yielded a self-cleavage of 0.04.
With C8U A14C G21A the self-cleavage was 0.32.
Variant C8U A26C U34G G36C G40A has a self-cleavage of 0.05.
In the case of C8U A12U C13U A41U, the self-cleavage is reported as 0.47.
C8U A25U G33U C42G gave a self-cleavage of 0.16.
For C8U A11C G21C G33C, the self-cleavage was 0.01.
For C8U A16C C18U G30U, the self-cleavage was 0.03.
C8U C13A G44C showed a self-cleavage of 0.22.
For C8U A14C C45G, the self-cleavage was 1.1.
In the case of C8U C13U A16C C18G, the self-cleavage is reported as 0.08.
Variant C8U A11U C13U A25C U32G has a self-cleavage of 0.01.
C8U A12G A25C U43G showed a self-cleavage of 0.01.
In the case of C8U C15A C18A U20A G30U G35U U38A, the self-cleavage is reported as 0.01.
C8U A16G U28A G33C showed a self-cleavage of 0.06.
For C8U A11C G22A C23A C37A, the self-cleavage was 0.01.
Variant C8U A12C C15A A24U C42U G44C has a self-cleavage of 0.03.
With C8U A26U G33U G35C the self-cleavage was 0.06.
C8U A41U U43A gave a self-cleavage of 0.64.
In the case of C8U A24U A39G, the self-cleavage is reported as 0.02.
C8U C13U G27U C31U G33A showed a self-cleavage of 0.17.
Variant C8U C13A C18G has a self-cleavage of 0.06.
In the case of C8U C10U G35U, the self-cleavage is reported as 0.04.
Work on C8U C13U G27C yielded a self-cleavage of 0.14.
C8U C13G A14C C46A showed a self-cleavage of 0.17.
With C8U A16U G17C U34C A39U U43A the self-cleavage was 0.06.
C8G U28C G36C U38G G40C U43A gave a self-cleavage of 0.
With C8U C15A C31U G35A the self-cleavage was 0.27.
C8U A14U C18A G36C showed a self-cleavage of 0.05.
C8U A16C G17U gave a self-cleavage of 0.03.
C8U A24U A26G U28C G40C gave a self-cleavage of 0.27.
